# According to publication PMC4336329 (PLoS ONE, 2015):
# Among all 310,000 compounds or so, about 14,000 (4.5%) showed an effect of 50% or more. Effects have a minus sign here. The list shows a part of the results.
# Molecular target: human ether-à-go-go-related gene (hERG) potassium channel (human, UniProt Q12809)
# Assay: primary screen, population patch clamp on CHO cells stably expressing hERG
# 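Also: peak tail current of the secondary pulse compared with the same well before compound.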
# human ether-à-go-go-related gene (hERG) potassium channel, sequence (Q12809 whole entry, looked up): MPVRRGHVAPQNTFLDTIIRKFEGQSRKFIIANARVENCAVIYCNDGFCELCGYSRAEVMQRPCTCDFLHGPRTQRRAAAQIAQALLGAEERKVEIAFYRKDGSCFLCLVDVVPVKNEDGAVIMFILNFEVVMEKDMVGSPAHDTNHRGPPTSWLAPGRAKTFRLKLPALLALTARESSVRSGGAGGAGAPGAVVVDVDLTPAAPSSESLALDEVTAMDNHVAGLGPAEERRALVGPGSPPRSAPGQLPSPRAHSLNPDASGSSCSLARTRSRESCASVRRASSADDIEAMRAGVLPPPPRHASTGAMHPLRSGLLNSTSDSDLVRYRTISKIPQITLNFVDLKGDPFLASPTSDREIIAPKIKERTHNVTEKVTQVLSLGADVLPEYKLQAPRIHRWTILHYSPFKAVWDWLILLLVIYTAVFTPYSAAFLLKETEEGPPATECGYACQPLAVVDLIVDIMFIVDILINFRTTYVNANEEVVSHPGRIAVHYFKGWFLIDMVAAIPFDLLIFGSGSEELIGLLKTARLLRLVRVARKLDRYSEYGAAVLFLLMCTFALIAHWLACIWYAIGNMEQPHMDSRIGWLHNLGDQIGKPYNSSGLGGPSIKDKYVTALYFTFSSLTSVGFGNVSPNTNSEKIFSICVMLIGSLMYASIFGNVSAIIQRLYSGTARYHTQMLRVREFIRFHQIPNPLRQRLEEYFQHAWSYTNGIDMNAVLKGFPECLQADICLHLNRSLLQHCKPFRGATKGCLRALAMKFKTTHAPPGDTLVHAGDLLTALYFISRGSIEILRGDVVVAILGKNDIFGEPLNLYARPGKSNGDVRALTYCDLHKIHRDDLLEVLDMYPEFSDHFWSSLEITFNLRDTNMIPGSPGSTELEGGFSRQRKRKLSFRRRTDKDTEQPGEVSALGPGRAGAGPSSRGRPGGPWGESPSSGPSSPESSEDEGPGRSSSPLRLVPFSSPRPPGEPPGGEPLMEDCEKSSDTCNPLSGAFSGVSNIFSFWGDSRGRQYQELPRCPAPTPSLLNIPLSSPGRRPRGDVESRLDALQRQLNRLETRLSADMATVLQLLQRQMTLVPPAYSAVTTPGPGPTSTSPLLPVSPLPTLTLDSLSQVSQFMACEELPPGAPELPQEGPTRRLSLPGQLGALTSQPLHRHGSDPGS
row,SMILES,"hERG current change (%, negative = inhibition) at 10uM"
1,Cc1c(C(=O)O)oc2c1/C(=N\O)CCC2,29%
2,Cc1cc(NC(=O)c2ccc(C#N)cc2)on1,3.29%
3,CCN(CCn1cccn1)C(=O)CCc1nnc(C2(c3ccc(Cl)cc3)CCC2)o1,-2.95%
4,CSCCC(NC(=O)/C(=C/c1ccco1)NC(=O)c1ccco1)C(=O)O (centres unmarked),8.29%
5,O=C(N1CCOCC1)N1CCN(S(=O)(=O)c2ccccc2)C1,-12.8%
6,Cc1ccc(S(=O)(=O)N2CCC(C(=O)N/N=C/c3cccnc3)CC2)cc1,-46.9%
7,O=[N+]([O-])c1cc(NCCO)c(N2CCCCCC2)c2nonc12,10.7%
8,Cc1ccccc1NC(=O)C1CCCN(S(=O)(=O)c2ccc(-n3cnnn3)cc2)C1 (centres unmarked),-22.4%
9,O=C(CS(=O)(=O)c1c[nH]c2ccccc12)N1CCCCCC1,43.4%
10,CC1CCCC(C)N1C(=O)COC(=O)CNC(=O)C12CC3CC(CC(C3)C1)C2 (centres unmarked),-8.89%
11,CSCC[C@H](NC(=O)CCCn1nnc2ccccc2c1=O)C(=O)O,0.823%
12,N#Cc1c(Cl)nc2c(c1C#N)CCCC2,-4.05%
13,Cc1cc(F)ccc1S(=O)(=O)NCC1CC2CCC1C2 (centres unmarked),-18.6%
14,O=C(c1cccs1)N1N=C(c2ccccc2)CC1c1ccccc1 (centres unmarked),3.72%
15,COc1cc(Nc2ccc(C(=O)O)cc2[N+](=O)[O-])cc(OC)c1,37.4%
16,COc1cc(NS(=O)(=O)c2cccc3nsnc23)cc(OC)c1,0.833%
17,CCCCN1C(=O)Nc2ccccc2S1=O (centres unmarked),3.55%
18,COC(=O)c1[nH]c2cc(OC)ccc2c1N=CN(C)C,-12.6%
19,CC(=O)N(CCCN1CCOCC1)Cc1ccncc1.Cl,16.4%
20,CNC(=O)CSc1nnc(CCc2ccccc2)n1-c1ccccc1,-13%
21,O=C(CCS(=O)(=O)CCN1CCOCC1)NCNC(=O)CCS(=O)(=O)CCN1CCOCC1,8.25%
22,CCOC(=O)C1=C(C)NC(=O)N(C(C)=O)C1c1ccc(Cl)cc1 (centres unmarked),4.43%

row,SMILES,"hERG current change (%, negative = inhibition) at 10uM"
1,O=C(O)/C(=C\c1ccc2ccccc2c1)c1cccc2ccccc12,6.53%
2,CN(CCC#N)C(=O)CSc1nnc(-c2ccco2)n1N,6.26%
3,CC1CC(C)CN(CCCNC(=O)c2ccc3c(c2)NC(=O)CS3)C1 (centres unmarked),3.68%
4,CSc1ccccc1NC(=O)c1ccncc1,3.62%
5,Oc1ccc2ccccc2c1C1Nc2cccc3cccc(c23)N1,-18.3%
6,COc1cccc(CN2CC(C(=O)NCC3CCOCC3)CCC2=O)c1 (centres unmarked),22.7%
7,O=C(CNC(=O)c1ccc(Cl)cc1Cl)OCc1nnc(-c2ccccc2)o1,-8.74%
8,CCC(=O)Nc1ccc(NC(=O)c2cccc3ccccc23)cc1,23.9%
9,CCS(=O)(=O)N1Cc2ccccc2CC1C(=O)N(C)CC(=O)Nc1ccc(OC)cc1 (centres unmarked),-12.9%
10,C/C=C/c1ccc(OCC(=O)OCC2=C(C(=O)OCC)C(C)NC(=O)N2)c(OC)c1 (centres unmarked),-7.22%
11,O=C(O)c1cc(S(=O)(=O)N2CCCCC2)sc1Cl,17%
12,C=CCn1c(SCC(=O)NNC(=S)Nc2ccccc2)nnc1-c1ccccc1,15.9%
13,O=C(CCCNC(=O)/C(=C\c1ccccc1F)NC(=O)c1ccccc1)OCc1ccccc1,-9.13%
14,CC(O)CNCCCOc1ccccc1OCc1ccccc1.O=C(O)C(=O)O (centres unmarked),-36.7%
15,Cl.Cn1c(=O)c2c(ncn2CCNC2=NCCCCC2)n(C)c1=O,5.44%
16,CCOc1ccc2nc3sc(C(=O)N4CCOCC4)c(N)c3cc2c1,-5.89%
17,CCSc1nnc(COc2ccccc2)n1CC,6.43%
18,CC(C)CC(NC(=O)OC(C)(C)C)c1cn([C@@H](Cc2cc3ccccc3[nH]2)C(=O)N2CCN(C(=O)OC(C)(C)C)CC2)nn1 (some centres unmarked),-9.1%
19,Cc1cc(N2CCN(C(=O)OC(C)(C)C)CC2)n2ncnc2n1,-27.5%
20,COc1ccc2c(c1)c(=O)c(C(=O)c1ccc(F)cc1)cn2CC(=O)Nc1ccc(F)cc1,-5.61%
21,CCn1c(CNC(=O)c2ccc(F)cc2)cc2ccccc21,6.31%
22,COc1ccc(OCc2nn[nH]n2)cc1,15.9%
